These are yes or no findings as the source states them, for the method shown.
Target: T1, ABA receptor PYR1 (Arabidopsis), O49686
T1 chain: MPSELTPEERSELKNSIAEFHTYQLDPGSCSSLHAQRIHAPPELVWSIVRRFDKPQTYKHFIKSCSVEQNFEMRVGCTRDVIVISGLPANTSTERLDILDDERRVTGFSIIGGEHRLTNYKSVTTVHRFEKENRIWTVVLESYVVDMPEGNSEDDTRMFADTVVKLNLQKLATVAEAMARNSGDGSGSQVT
Assay: AlphaScreen or HTRF; biotinylated ABA receptor and AGIA-tagged ABA receptor, crude wheat cell-free translation mixtures, without ABA; 14 x 14 matrix; pair = signal at least two times that of DHFR
Conditions: remark: other sources report otherwise

binding: no binding
B1: ABA receptor PYR1, O49686 1-191 (receptor)
chain: T1 chain
modifications: here or on the partner: N-terminal mono-biotinylation (BirA); N-terminal mono-biotinylation (BirA)

— PMC5844987
